# Results: PubChem BioAssay (NCATS)
# This list was built around the results that the source calls inconclusive (neither active nor inactive); the mix of calls is not that of the screen. For some assays here: No potency is given beside an inconclusive call; the fits are too rough. Some compounds were tested as several samples or in several runs, with calls that do not always agree. Activity calls are given as the source filed them. Unless noted, calls come from the whole dose curve; as a rule, active = well fitted curve in the direction sought with a large enough effect; inconclusive = small, poorly fitted or top-dose-only effect, or another doubt; inactive = no such curve, though single readings can be large; an effect the other way counts as inactive or inconclusive.
# Legend:
# [1] = AP1 Signaling Pathway (AID 357; active = well fitted curve in either direction with a large enough effect, not every such curve was filed as active; inconclusive = small, poorly fitted or top-dose-only effect, or another doubt; note: top concentration of the series differs between compounds; % is set by controls: 0 for no effect and ±100 for the full control effect); details: ME-180 AP-1-bla reporter, EGF-induced, beta-lactamase ratio, 5 h; at 38 µM (top of the series)
# Procedure, shortened: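 AP-1-bla ME-180 cells with beta-lactamase reporter under AP-1 response element, stimulated with EC50 EGF; compounds titrated, 5 hours at 37 degrees Celsius. CCF4 read at 460/530 nm ratio; positive and negative modulators judged by AC50.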
# [2] = NFAT Signaling Pathway (AID 444; active = well fitted curve in either direction with a large enough effect, not every such curve was filed as active; inconclusive = small, poorly fitted or top-dose-only effect, or another doubt;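 note: carbachol stimulus at about its EC50 of 1 µM final; % is set by controls: 0 for no effect and ±100 for the full control effect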); details: Jurkat NFAT-bla M1, carbachol, beta-lactamase ratio, 5 h; at 38 µM (top of the series)
# Procedure, shortened: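 Jurkat cells with NFAT-driven β-lactamase reporter and co-expressed M1 receptor, stimulated with carbachol (final 1 uM, ~EC50), compound titration, 5 h at 37 °C. CCF4 loaded 1 h at RT; 460/530 nm ratio gave %activity and AC50.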
# [3] = Stat Signaling Pathway (AID 446; active = well fitted curve in either direction with a large enough effect, not every such curve was filed as active; inconclusive = small, poorly fitted or top-dose-only effect, or another doubt;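 note: ME-180 cervical cancer cells given 40 pM IL-6 alongside compound; SIE-controlled beta-lactamase reporter measured as 460/530 nm FRET emission ratio; top concentration of the series differs between compounds; % is set by controls: 0 for no effect and ±100 for the full control effect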); details: ME-180 SIE beta-lactamase reporter, IL-6 stimulated, 5 h; at 38 µM (top of the series)
# Procedure, shortened: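 Emission at 460 and 530 nm (excitation 405 nm) reports SIE-controlled beta-lactamase in ME-180 cells. Cells received compound with 40 pM IL-6 for 5 hrs at 37 C; data scaled between 300 pM IL-6 and 125 nM JAK-inhibitor controls.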
# [4] = biological target: Cytochrome P450 2D6 (Homo sapiens) (UniProt P10635); assay: qHTS Assay for Inhibitors and Substrates of Cytochrome P450 2D6 (AID 891);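 note: luciferin methyl ether substrate demethylated by CYP2D6 with NADPH regeneration; top concentration of the series differs between compounds; % is set by controls: 0 for no effect and ±100 for the full control effect; nearly all actives have a fitted effect of over 60% in size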
# Procedure, shortened: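 Luminescent read-out of luciferin formed by 5 nM human CYP2D6 demethylating 30 uM Luciferin-ME EGE (Km level) over 60 min at room temperature after NADPH regeneration addition. Data normalized to full inhibition by 1.43 uM quinidine.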
# [5] = qHTS Assay for Identification of Small Molecule Antagonists for NFkB Signaling Pathway (AID 895; active = well fitted inhibition curve with a large enough effect in the signal ratio, with a control signal flat, not every such curve was filed as active; inconclusive = small, poorly fitted or top-dose-only effect, or effect the other way, or a change in a side signal; the % refers to the signal ratio; note: potency is the fitted concentration of half-maximal effect); details: NFkB beta-lactamase reporter cells, FRET ratio 460/530, stimulated with 10 pM TNF alpha; activity change, negative = inhibition: at 38.3 µM (top of the series)
# Procedure, shortened: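 ME-180 NFkB-bla cells (beta-lactamase under NFkB response element), plated overnight, treated with compound then 10 pM TNF alpha (about EC50) for 5 hrs at 37 C. LiveBLAzer FRET read at 460/530 nm emission, 405 nm excitation.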
# [6] = qHTS Assay for Identification of Small Molecule Agonists for Hypoxia Response Element Signaling Pathway (AID 914; active = well fitted activation curve with a large enough effect in the signal ratio, with a control signal flat, not every such curve was filed as active; inconclusive = small, poorly fitted or top-dose-only effect, or effect the other way, or a change in a side signal; the % refers to the signal ratio; note: potency is the fitted concentration of half-maximal effect); details: ME-180 (cervical carcinoma) HRE-bla reporter, beta-lactamase ratio, CoCl2, 17 h; activation: hits give high values
# Procedure, shortened: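 AC50 values come from titration-series %Activity, taken as the 460/530nm ratio of CCF4 fluorescence (excitation 405nm). CellSensor HRE-bla ME-180 cells were treated 17 hours at 37 C with compound plus an EC50 level of CoCl2.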
# [7] = qHTS Assay for Identification of Small Molecule Agonists for Thrombopoietin (TPO) Signaling Pathway (AID 917); note: potency is the fitted concentration of half-maximal effect
# Procedure, shortened: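 Stimulation at the TPO EC50 (26 pM final) was used to detect activators. Ba/F3 mouse cells bearing human TPO receptor and a luciferase reporter under the Glycoprotein IIb promoter were exposed to compounds for 24 hrs at 37 C.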
# [8] = qHTS Assay for Identification of Small Molecule Antagonists for Thrombopoietin (TPO) Signaling Pathway (AID 918); details: TPO-dependent cell signaling reporter, antagonist mode; activity change, negative = inhibition: at 38.5 µM (top of the series); note: potency is the fitted concentration of half-maximal effect; nearly all actives have a fitted effect of over 60% in size
# Procedure, shortened: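 Inhibition read as reduced luciferase luminescence after 24 h at 37 C in IL-3-deprived Ba/F3 cells carrying human TPO receptor and GPIIb-promoter reporter, stimulated with 26 pM TPO (final, its EC50) alongside compound.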
# [9] = biological target: Muscarinic acetylcholine receptor M1 (Rattus norvegicus) (UniProt P08482); assay: qHTS Assay for Antagonists of Acetylcholine Muscarinic M1 Receptor: Kinetic Measurement of Intracellular Calcium Response (AID 943);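 note: Fluo-4 calcium signal as peak divided by basal fluorescence over 4 min; nearly all actives have a fitted effect of over 75% in size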
# Procedure, shortened: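 Antagonism measured as reduction of carbachol-evoked (EC80, 100 nM final) calcium flux in rat M1-CHO cells after 10 min compound exposure. Fluo-4 signal read kinetically; ratio of maximal to basal fluorescence.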
# [10] = biological target: Muscarinic acetylcholine receptor M1 (Rattus norvegicus) (UniProt P08482); assay: qHTS Assay for Antagonists of Acetylcholine Muscarinic M1 Receptor: Measurement of IP-One Response (AID 944); note: potency is the fitted concentration of half-maximal effect; nearly all actives have a fitted effect of over 75% in size
# [11] = biological target: Pyruvate kinase (Leishmania mexicana) (UniProt Q27686); assay: qHTS Validation Assay for Inhibitors of Leishmania Mexicana Pyruvate Kinase (AID 945); note: potency is the fitted concentration of half-maximal effect
# Procedure, shortened: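 Purified LmPYK (E451W mutant, 0.2 nM) was incubated 1 h at room temperature with 0.5 mM PEP and 0.1 mM ADP in 50 mM imidazole pH 7.2, 50 mM KCl, 7 mM MgCl2; ATP formed was read by PKLight luminescence, normalized to DMSO wells.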
# [12] = Validation of Assay for Modulators of Lamin A Splicing (AID 1459; active = well fitted curve in the direction sought with a large enough effect in the signal ratio; inconclusive = small, poorly fitted or top-dose-only effect, or effect the other way, or a change in a side signal; inactive = no such curve, though single readings can be large or run the other way; the % refers to the signal ratio;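 note: cells exposed to compound for two days before reading; 0% is about no effect; ratio rise marks activators and ratio drop marks inhibitors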); details: Lamin A splicing dual RFP/GFP fluorescence reporter; Potency: ratio unless noted; ratio change, both ways: at 9.22 µM unless noted
# Procedure, shortened: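 S3 HeLa stably expressing lamin A-EGFP splicing minigene and DsRed2, 600 cells/well in Opti-MEM with 2% FBS, treated 48 h at 37C; laser-scanning cytometry gives GFP/RFP total intensity ratio; ancitabine positive control, 0.5% DMSO vehicle.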
# [13] = biological target: Endonuclease 4 (Escherichia coli (strain K12)) (UniProt P0A6C1); assay: Counterscreen for APE1 Inhibitors: qHTS Validation Assay for Inhibitors of Endonuclease IV (AID 1708); note: potency is the fitted concentration of half-maximal effect
# Procedure, shortened: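 Conditions: 2 nM enzyme, 50 nM TAMRA/BHQ-2 substrate, pH 7.5 Tris buffer with 2 mM MgCl2, RT. Compound preincubation 15 min; readout three fluorescence reads 60 s apart, third-minus-first.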
# [14] = qHTS for differential inhibitors of proliferation of Plasmodium falciparum line Dd2 (AID 1882); details: Potency: Plasmodium falciparum Dd2 proliferation inhibition; note: potency is the fitted concentration of half-maximal effect; nearly all actives have a fitted effect of over 65% in size
# Procedure, shortened: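 SYBR Green DNA fluorescence (ex 485, em 535 nm) after overnight lysis quantifies parasite growth; compound exposure lasted 72 h at 37 C on infected red cells at 2.5% hematocrit, 0.3% parasitemia (final). Artemisinin 0.29 uM and vehicle wells define normalization.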
# [15] = biological target: RecQ-like DNA helicase BLM (Homo sapiens) (UniProt P54132); assay: qHTS Validation Assay for Inhibitors of Bloom's syndrome helicase (BLM) (AID 2364); note: potency is the fitted concentration of half-maximal effect
# Procedure, shortened: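 50 nM BLM preincubated 15 min at room temperature with compound in pH 8.0 Tris buffer containing 2.5 ug/ml poly(dI-dC); started with 200 nM TAMRA/BHQ-2 forked duplex and 2 mM ATP (final). Unwinding read as TAMRA fluorescence increase, two reads 2 h apart.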
# [16] = Cytometric Cell-Based qHTS for Inhibitors of the mTORC1 Signaling Pathway in MEF (Tsc2-/-, p53-/-) Cells (AID 2660); note: potency is the fitted concentration of half-maximal effect
# Procedure, shortened: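 Cells are plated, treated with compound for 24 hrs at 37 degree Celsius, then fixed, blocked and immunostained for phospho-rpS6 Ser235/236. Propidium iodide counterstain follows. Per-well % positive cells is derived from the PI-normalized phospho-S6 signal.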
# [17] = High Content Imaging Cell-Based qHTS for Inhibitors of the mTORC1 Signaling Pathway in MEF (Tsc2-/-, p53-/-) Cells (AID 2666);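 note: percent of cells scored positive for phospho-rpS6 Ser235/236 immunostaining by imaging; potency is the fitted concentration of half-maximal effect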
# Procedure, shortened: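 MEF Tsc2-/- p53-/- (empty vector), DMEM/10% FBS; cpd 24 h 37 °C; PFA fix, Alexa-488 p-rpS6 S235/236 Ab, Hoechst; imaged; rapamycin-defined inhibition; % positive cells/well.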
# [18] = Cytometry Cell-Based qHTS for Inhibitors of the mTORC1 Signaling Pathway in MEF cells (AID 2668); note: potency is the fitted concentration of half-maximal effect
# Procedure, shortened: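 MEFs (Tsc2-/-, p53-/- stably expressing WT Tsc2) treated 24 h at 37 degree Celsius, fixed, stained with Alexa-488 anti-phospho-rpS6 Ser235/236 and propidium iodide; Acumen laser scanning. Reported as % positive cells, phospho-S6 normalized to PI.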
# [19] = Validation screen for small molecules that induce DNA re-replication in MCF 10A normal breast cells (AID 463097); note: potency is the fitted concentration of half-maximal effect; nearly all actives have a fitted effect of over 60% in size
# Procedure, shortened: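 MCF 10A cells exposed to compound 48 hr at 37 C, 5% CO2, then Hoechst-stained 40 min. Laser-scanning imaging of nuclear DNA content (405 nm ex, 500-530 nm em); re-replication scored as rise in nuclei with elevated fluorescence intensity.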
# [20] = qHTS Validation Assay to Find Inhibitors of Chronic Active B-Cell Receptor Signaling (AID 485345; active = well fitted curve in the direction sought with a large enough effect in the main read-out, with a control signal flat, not every such curve was filed as active; inconclusive = small, poorly fitted or top-dose-only effect, or effect the other way, or a change in a side signal; inactive = no such curve, though single readings can be large or run the other way;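 note: 0% = untreated basal cells and 100% = 10 µM MG-132 proteasome inhibitor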); details: ABC-DLBCL cells, chronic BCR signaling reporter; activity change: CBG luciferase, at 46.1 µM (top of the series)
# Procedure, shortened: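 TMD8 ABC-DLBCL cells stably carrying doxycycline-inducible IkappaBalpha–green luciferase fusion plus unfused red luciferase; compounds 46 uM to 3 nM, 4 h at 37C with doxycycline. Corrected green/red luminescence ratio normalized to 10 uM MG-132 and basal cell wells; curves fitted.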
# [21] = biological target: ATP-dependent 6-phosphofructokinase (Trypanosoma brucei brucei) (UniProt O15648); assay: qHTS Validation Assay to Find Inhibitors of T. brucei phosphofructokinase (AID 485368); details: activity change, negative = inhibition: at 57.5 µM (top of the series);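 note: 0% = full PFK enzyme control and -100% = wells without enzyme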
# Procedure, shortened: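 qHTS format, up to 57 uM. PFK 1.25 nM; F6P 0.5 mM; ATP 0.1 mM; 5 mM MgCl2, 0.01% Tween20, 0.1% BSA; 0.1 M TEA pH 8.0; 45 min RT; ADP-Glo readout; no-enzyme control = full inhibition.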
# [22] = Quantitative high throughput screen for delayed death inhibitors of the malarial parasite plastid, 96 hour incubation (AID 488745); note: potency is the fitted concentration of half-maximal effect; nearly all actives have a fitted effect of over 70% in size
# Procedure, shortened: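 Decreased firefly luciferase luminescence indicates inhibited growth of reporter-integrated P. falciparum after two generations (96 h, 37 C, 5% CO2). Infected erythrocytes at 0.1% parasitemia, 2% hematocrit, in Albumax-supplemented RPMI 1640.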
# [23] = biological target: Thioredoxin reductase 1, cytoplasmic (Rattus norvegicus) (UniProt O89049); assay: qHTS Assay for Inhibitors of Mammalian Selenoprotein Thioredoxin Reductase 1 (TrxR1) (AID 488773); details: Potency: inhibition; note: potency is the fitted concentration of half-maximal effect; nearly all actives have a fitted effect of over 40% in size
# Procedure, shortened: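 Inhibition is scored from the loss of NADPH fluorescence between first and last reads of an 8-min kinetic run. Selenite (400 uM) was the substrate, added after 15 min compound preincubation at room temperature.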
# Tags give direction and shape of the fitted curve or compound fluorescence and quenching.
# Chain of UniProt P08482 (P08482 whole entry, looked up): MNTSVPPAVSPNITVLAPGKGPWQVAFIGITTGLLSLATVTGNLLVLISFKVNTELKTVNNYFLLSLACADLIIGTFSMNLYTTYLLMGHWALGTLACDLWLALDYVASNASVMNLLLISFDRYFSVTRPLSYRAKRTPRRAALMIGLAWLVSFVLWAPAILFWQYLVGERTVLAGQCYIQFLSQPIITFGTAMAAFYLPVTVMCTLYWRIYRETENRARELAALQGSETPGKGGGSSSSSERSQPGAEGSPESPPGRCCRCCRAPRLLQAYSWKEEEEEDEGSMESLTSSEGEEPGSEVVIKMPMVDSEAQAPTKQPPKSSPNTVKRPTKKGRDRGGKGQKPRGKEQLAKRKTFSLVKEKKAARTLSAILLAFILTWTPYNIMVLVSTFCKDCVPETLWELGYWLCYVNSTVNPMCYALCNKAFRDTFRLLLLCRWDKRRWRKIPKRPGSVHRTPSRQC
# Chain of UniProt P54132 (P54132 whole entry, looked up): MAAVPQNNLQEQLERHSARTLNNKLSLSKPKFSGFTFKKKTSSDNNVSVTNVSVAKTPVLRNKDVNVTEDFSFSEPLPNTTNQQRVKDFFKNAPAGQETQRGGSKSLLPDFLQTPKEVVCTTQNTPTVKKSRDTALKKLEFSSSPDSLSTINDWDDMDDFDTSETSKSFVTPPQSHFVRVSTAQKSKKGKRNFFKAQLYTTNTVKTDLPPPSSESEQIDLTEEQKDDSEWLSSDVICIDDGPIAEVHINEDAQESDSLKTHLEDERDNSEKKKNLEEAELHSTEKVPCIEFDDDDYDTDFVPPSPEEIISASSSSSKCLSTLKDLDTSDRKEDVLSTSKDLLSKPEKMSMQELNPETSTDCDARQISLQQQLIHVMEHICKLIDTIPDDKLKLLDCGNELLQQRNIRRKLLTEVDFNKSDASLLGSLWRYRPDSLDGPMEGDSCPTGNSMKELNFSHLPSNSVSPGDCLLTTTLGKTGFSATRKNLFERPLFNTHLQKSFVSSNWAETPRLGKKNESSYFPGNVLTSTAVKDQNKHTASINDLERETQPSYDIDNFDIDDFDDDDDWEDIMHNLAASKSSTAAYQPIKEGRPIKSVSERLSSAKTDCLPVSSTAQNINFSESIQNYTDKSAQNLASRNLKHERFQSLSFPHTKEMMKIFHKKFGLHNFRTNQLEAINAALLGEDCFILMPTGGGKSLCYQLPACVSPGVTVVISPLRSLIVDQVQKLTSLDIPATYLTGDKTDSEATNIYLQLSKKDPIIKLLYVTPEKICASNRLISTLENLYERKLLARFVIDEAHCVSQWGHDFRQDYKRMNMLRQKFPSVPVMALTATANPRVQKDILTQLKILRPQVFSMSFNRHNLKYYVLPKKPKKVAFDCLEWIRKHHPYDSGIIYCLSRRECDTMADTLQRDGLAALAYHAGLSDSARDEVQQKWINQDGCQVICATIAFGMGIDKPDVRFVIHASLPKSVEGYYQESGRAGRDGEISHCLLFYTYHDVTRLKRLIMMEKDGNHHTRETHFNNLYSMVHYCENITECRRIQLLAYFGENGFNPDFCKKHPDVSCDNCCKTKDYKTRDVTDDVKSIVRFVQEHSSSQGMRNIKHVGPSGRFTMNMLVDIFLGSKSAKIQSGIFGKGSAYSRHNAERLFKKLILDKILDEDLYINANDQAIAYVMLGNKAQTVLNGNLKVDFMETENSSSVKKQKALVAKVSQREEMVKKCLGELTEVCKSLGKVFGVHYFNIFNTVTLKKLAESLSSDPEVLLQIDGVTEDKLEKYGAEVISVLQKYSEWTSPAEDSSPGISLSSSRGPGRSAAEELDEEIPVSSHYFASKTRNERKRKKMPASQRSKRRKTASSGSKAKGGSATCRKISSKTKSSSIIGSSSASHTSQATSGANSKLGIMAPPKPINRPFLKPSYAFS
# Chain of UniProt Q27686 (Q27686 whole entry, looked up): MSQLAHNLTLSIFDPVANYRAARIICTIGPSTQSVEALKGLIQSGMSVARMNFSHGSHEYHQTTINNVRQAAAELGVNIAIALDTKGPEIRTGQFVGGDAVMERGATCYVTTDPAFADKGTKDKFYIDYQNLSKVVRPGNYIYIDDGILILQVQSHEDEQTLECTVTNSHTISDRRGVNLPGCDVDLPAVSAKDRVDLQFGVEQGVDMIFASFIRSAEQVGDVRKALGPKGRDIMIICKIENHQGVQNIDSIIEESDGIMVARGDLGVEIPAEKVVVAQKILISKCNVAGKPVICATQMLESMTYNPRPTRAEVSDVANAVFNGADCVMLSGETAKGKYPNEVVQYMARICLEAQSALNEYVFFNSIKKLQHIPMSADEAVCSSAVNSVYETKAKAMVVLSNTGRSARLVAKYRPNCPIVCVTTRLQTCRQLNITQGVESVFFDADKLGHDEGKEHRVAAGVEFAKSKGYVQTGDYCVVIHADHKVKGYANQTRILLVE
# Chain of UniProt P10635 (P10635 whole entry, looked up): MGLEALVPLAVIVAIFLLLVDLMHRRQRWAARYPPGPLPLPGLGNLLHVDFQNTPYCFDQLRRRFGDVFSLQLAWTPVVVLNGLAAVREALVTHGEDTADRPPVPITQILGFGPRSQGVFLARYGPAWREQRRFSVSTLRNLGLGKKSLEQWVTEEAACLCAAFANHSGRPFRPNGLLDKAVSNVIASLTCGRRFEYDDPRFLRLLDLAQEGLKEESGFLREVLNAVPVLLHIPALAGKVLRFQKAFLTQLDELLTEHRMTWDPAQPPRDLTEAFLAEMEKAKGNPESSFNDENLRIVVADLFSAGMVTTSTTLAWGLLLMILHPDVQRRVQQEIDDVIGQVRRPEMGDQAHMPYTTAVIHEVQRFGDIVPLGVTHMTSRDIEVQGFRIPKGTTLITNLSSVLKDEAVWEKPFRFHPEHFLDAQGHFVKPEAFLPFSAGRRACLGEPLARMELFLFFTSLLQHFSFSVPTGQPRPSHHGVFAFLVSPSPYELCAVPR
# Chain of UniProt O15648 (O15648 whole entry, looked up): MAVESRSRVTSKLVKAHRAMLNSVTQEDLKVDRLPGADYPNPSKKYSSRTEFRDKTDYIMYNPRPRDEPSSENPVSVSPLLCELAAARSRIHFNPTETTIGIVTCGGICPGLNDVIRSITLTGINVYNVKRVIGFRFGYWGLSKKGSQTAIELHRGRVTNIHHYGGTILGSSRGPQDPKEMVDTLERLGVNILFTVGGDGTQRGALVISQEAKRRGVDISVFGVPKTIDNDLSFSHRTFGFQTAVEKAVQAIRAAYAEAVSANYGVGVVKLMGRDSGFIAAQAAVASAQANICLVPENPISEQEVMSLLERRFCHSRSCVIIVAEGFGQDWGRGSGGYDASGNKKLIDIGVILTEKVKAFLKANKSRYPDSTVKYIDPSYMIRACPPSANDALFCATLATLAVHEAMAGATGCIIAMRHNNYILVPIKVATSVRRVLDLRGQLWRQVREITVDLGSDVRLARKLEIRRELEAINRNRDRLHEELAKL
# Chain of UniProt O89049 (O89049 whole entry, looked up): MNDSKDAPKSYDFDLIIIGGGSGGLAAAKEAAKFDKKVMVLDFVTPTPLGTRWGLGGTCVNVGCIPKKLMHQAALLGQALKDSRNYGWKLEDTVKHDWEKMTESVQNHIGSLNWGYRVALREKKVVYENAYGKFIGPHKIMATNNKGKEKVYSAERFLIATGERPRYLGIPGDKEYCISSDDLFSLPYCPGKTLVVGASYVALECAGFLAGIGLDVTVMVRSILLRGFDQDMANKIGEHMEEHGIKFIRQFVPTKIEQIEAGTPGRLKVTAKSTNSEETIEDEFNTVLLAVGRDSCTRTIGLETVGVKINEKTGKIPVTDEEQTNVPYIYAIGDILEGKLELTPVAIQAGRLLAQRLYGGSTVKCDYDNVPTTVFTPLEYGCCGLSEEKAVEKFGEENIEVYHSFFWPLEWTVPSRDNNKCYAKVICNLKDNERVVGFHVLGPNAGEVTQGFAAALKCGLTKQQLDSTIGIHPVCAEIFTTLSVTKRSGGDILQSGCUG
compound,measurement,setting,value
O=C1Cc2c([nH]c3ccc(Br)cc23)-c2ccccc2N1,"activity change, negative = inhibition",[1],active: -104%
same,"activity change, negative = inhibition",[2],active: -74.4%
same,"activity, negative = inhibition",[3],active: -29.2%
same,Potency,[4],inactive
same,Potency,[5],"inconclusive [inhibitor, full curve, poor fit]"
same,Potency,[6],"inconclusive [inhibitor, full curve]"
same,Potency,[7],active: 0.158 µM
same,Potency,[8],"inconclusive [activator, full curve]"
same,Potency,[9],inactive
same,Potency,[10],"inconclusive [inhibitor, partial curve, poor fit]"
same,Potency,[11],"inconclusive [inhibitor, full curve]"
same,"ratio change, both ways",[12],inconclusive: 26.1%
same,Potency,[13],"inconclusive [inhibitor, partial curve, poor fit]"
same,Potency,[14],"inconclusive [inhibitor, single point]"
same,Potency,[15],"inconclusive [inhibitor, partial curve, poor fit]"
same,Potency,[16],"inconclusive [falling, single point]"
same,Potency,[17],"inconclusive [falling, single point]"
same,Potency,[18],"inconclusive [falling, full curve]"
same,Potency,[19],active: 6.31 µM
same,activity change,[20],inconclusive: 16.6%
same,"activity change, negative = inhibition",[21],inconclusive: 19.3% [activator]
same,Potency,[22],"inconclusive [inhibitor, single point]"
same,Potency,[23],"inconclusive [inhibitor, single point]"
